Out of some 44,000 compounds screened, about 340 (0.77%) were called active. About 5% were inconclusive and are not listed. Calls come from the whole dose curve; as a rule, active = well fitted inhibition curve with a large enough effect; inconclusive = small, poorly fitted or top-dose-only effect; inactive = flat fitted curve, though single readings scatter. The list shows a part of the results.
Experiment: Acumen qHTS Assay for Inhibitors of the mTORC1 Signaling Pathway in MEF (Tsc2-/-, p53-/-) Cells: Sytravon;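 note: plate controls were DMSO for no effect and rapamycin for full effect; nearly all actives have a fitted effect of over 50% in size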
Conditions: phospho-rpS6 immunofluorescence/PI, 24 h; series mostly up to 38.3 µM; activity change, negative = inhibition: at the top concentration
Method in brief: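 Cell-based qHTS: Tsc2-/- p53-/- MEF, 24 h cpd, 37 °C; fix/perm, anti-phospho-S6 Alexa-488 + PI; Acumen 488 nm scan; pS6/PI ratio, % positive cells; rapamycin 7.5 nM = inhibition ref; PI count = viability.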

Structure (SMILES)	activity change, negative = inhibition
COc1ccccc1CNc1ncnc2c1c(-c1ccccc1)cn2-c1cccc(C)c1	inactive: -9.62%
CC(=O)c1ccc(NC(=O)Cn2ncc3c(C)n(Cc4ccc(F)cc4)c(C)c3c2=O)cc1	inactive: -0.368%
COc1cccc(Cn2c(CNS(=O)(=O)c3ccc4c(c3)CCCC4)nc3cccnc32)c1	inactive: -9.65%
CCN(CC)C(=O)CSc1nc2ccccc2c(=O)n1Cc1ccco1	inactive: -2.08%
COc1ccc(Cl)cc1NC(=O)N1CC(=O)Nc2sc3c(c2C1c1ccccc1)CCCC3 (stereo not given)	inactive: -0.582%
CCCc1nccn1S(=O)(=O)c1cc(Br)ccc1OC	inactive: 3.02%
Cc1ccc(NC(=O)Cn2c(-c3cncs3)nc3ccccc32)cc1Br	inactive: -4.5%
COc1cc2c(C(=O)N(C)c3cc(Cl)ccc3OC)cn(CC(C)C)c(=O)c2cc1OC	inactive: 4.4%
CCN(C(=O)Cn1c(=O)n(CC2CCC(C(=O)NC)CC2)c(=O)c2sccc21)c1ccccc1 (stereo not given)	inactive: -4.95%
COc1ccc(NC(=O)CN2C(=O)CCc3cc(S(=O)(=O)N4CCOCC4)ccc32)cc1Cl	inactive: 0%
O=C(Nc1ccccc1)c1cn(-c2ccccc2)nc1-c1ccccc1	inactive: -7.38%
COc1ccccc1NC(=O)CSC1=Nc2ccccc2N=C(c2ccc(F)cc2)C1	inactive: 0.752%
COc1ccc(Cn2ccc3nc(C)c(C(=O)Nc4ccc(OC(F)(F)F)cc4)cc3c2=O)cc1	inactive: -8.57%
CCCCC(=O)OC1=C(C(=O)c2ccccc2)N(CC)S(=O)(=O)c2ccccc21	inactive: -11.5%
CSc1ccc(CNC(=O)c2cc3cc(S(=O)(=O)N4CCCCC4)ccc3n2C)cc1	inactive: -3.06%
O=C(Nc1cccc(-c2nc3ccccc3o2)c1)c1cccc(Br)c1	inactive: -0.541%
CCOC(=O)c1c(Nc2cc(C)cc(C)c2)nnc(-c2ccccc2)c1-c1ccccc1	inactive: -11.4%
COc1cccc(CNC(=O)C2CCN(S(=O)(=O)N3CCC(C)CC3)CC2)c1	inactive: 6.31%
COc1ccccc1CNS(=O)(=O)c1ccc(F)c(C(=O)Nc2cc(Cl)ccc2OC)c1	inactive: 0%
Cc1cccc(OCCSc2nc(-c3cccs3)nc3cc(=O)[nH]n23)c1	inactive: 0.724%
COc1ccccc1N1CCN(S(=O)(=O)c2c(C)nc3sc(C)c(C)n3c2=O)CC1	inactive: -2.61%
COc1cccc2c1Oc1ncccc1N(C(=O)Nc1cccc(Cl)c1)C2	inactive: -11.1%
CCCCC(=O)OC1=C(C(=O)c2ccccc2)N(C)S(=O)(=O)c2ccccc21	inactive: -17.2%
Cn1nc(-c2ccc(C(=O)Nc3cccc(C(F)(F)F)c3)cc2)c2ccccc2c1=O	inactive: 2.61%

Structure (SMILES)	activity change, negative = inhibition
O=C(Nc1ccc(F)cc1F)c1cnn(-c2ccc(F)cc2)c1-n1cccc1	inactive: -2.71%
CCOc1ccccc1NC(=O)CN1c2ccccc2S(=O)(=O)c2ccccc21	inactive: -12.1%
Cc1ccc(CNC(=O)c2cc(S(=O)(=O)N3CCCCCC3)cn2C)cc1	inactive: 0.382%
COc1ccc(CNS(=O)(=O)c2cnc(N)nc2)cc1	inactive: -1.15%
CCOc1ccc(NS(=O)(=O)c2ccc3[nH]cc(C(=O)NCc4ccccc4)c(=O)c3c2)cc1	inactive: 1.55%
Cc1nn(C)c(C)c1S(=O)(=O)N(CC(=O)N1CCN(c2ccccc2)CC1)c1ccc(C(C)C)cc1	inactive: -2.61%
CCOc1ccccc1NC(=O)C1CCN(S(=O)(=O)c2ccc3[nH]c4c(c3c2)CCCCC4)CC1	inactive: 5.01%
CCCCCNC(=O)c1ccc2c(c1)nc(C)n2-c1cccc(C)c1	inactive: -21.3%
O=C(CCn1c(=O)c2cccn2c2ccccc21)Nc1ccc(F)cc1	inactive: 9%
Cc1cc(C)n(-c2nnc(Nc3cc(Cl)ccc3C)c3ccccc23)n1	inactive: 15.6%
COc1ccccc1NC(=O)c1cc2c([nH]c1=O)CC(C)(C)CC2=O	inactive: 15.1%
Cc1ccc(C)c(NC(=O)Cn2c(=O)ccc3cc(S(=O)(=O)N4CCCC4)ccc32)c1	inactive: 0.585%
O=C(NCc1cccs1)c1ccc(CSc2nc3cccnc3n2Cc2ccccc2)cc1	inactive: -4.88%
Cc1ccccc1NC(=O)c1ccc(F)c(S(=O)(=O)N(C)C2CCCCC2)c1	inactive: 0%
COc1ccc(NC(=O)c2sc3nc4c(cc3c2N)CCCCCC4)cc1OC	inactive: -7.13%
CC1Cc2cc(S(=O)(=O)N(C)c3ccc(Br)cc3)ccc2N1C(=O)C1CC1 (stereo not given)	inactive: -12.7%
Fc1ccc(Cc2cn3cc(-c4ccc(Cl)cc4)nc3s2)cc1	inactive: -1.84%
COc1ccc(NC(=O)C2CCCN(S(=O)(=O)c3cccs3)C2)cc1 (stereo not given)	inactive: 5.71%
CCC1CCCCN1CCCNC(=O)c1cc2c(=O)n(CC)c3ccccc3c2s1 (stereo not given)	inactive: -2.78%
CCN1CCN(C(c2ccccc2)c2c(O)cc(C)n(Cc3ccco3)c2=O)CC1 (stereo not given)	inactive: 1.35%
COc1ccc(-c2nnc3c4ccccc4c(-c4ccccc4)nn23)cc1	inactive: 7.21%
CCOc1ccc(CCNC(=O)c2cccc(-n3c(C)nc4cccnc43)c2)cc1	inactive: -1.85%
COC(=O)c1c(N)n(-c2ccc(OC)c(Cl)c2)c2nc3ccccc3nc12	inactive: 2.48%
O=C(Nc1ccccc1F)c1ccc(-c2ccccc2)s1	inactive: 0.811%

Structure (SMILES)	activity change, negative = inhibition
CCOC(=O)c1nnn(CC(=O)NC(=O)Nc2cccc(CC)c2)c1C(=O)OCC	inactive: 5.98%
CCN(CC)C(=O)c1sc2c(c1C)c(=O)n(-c1ccc(Cl)c(Cl)c1)c(=O)n2CC(=O)Nc1cccc(OC)c1	inactive: 3.26%
O=C(COc1ccc(Cl)cc1)NCCc1csc(-c2ccc(F)cc2)n1	inactive: 1.28%
O=C(Nc1ccc(F)cc1Cl)C1Cc2ccccc2N1C(=O)c1ccccc1 (stereo not given)	inactive: 0%
O=C(CCn1nc(-c2ccc(Cl)cc2)c2ccccc2c1=O)Nc1ccc(OC(F)(F)F)cc1	inactive: -9.88%
Cc1ccc(Cl)cc1N1CCN(C(=O)C2CCN(S(=O)(=O)c3ccc4c(c3)oc(=O)n4C)CC2)CC1	inactive: -18.6%
CC(=O)c1cccc(NC(=O)c2nc3ccccc3nc2N2CCCCC2)c1	inactive: -0.761%
COc1ccc(OC)c(CNC(=O)C2CCN(c3ncnc4c3nc3n4CCCCC3)CC2)c1	inactive: -4.02%
COC(=O)c1cc(S(=O)(=O)NCC2CCN(Cc3ccccc3F)CC2)c[nH]1	inactive: -0.273%
Cc1cc(C)c2c(n1)nn1c(C)c(CCC(=O)NCc3ccc(Cl)cc3)c(C)nc21	inactive: -3.9%
CN1C(=O)C2(c3ccccc31)N(c1ccc(F)c(Cl)c1)C(=O)CS2(=O)=O (stereo not given)	inactive: 0%
O=C(Nc1cc(F)ccc1F)c1cc2nc(-c3ccco3)cc(C(F)(F)Cl)n2n1	inactive: -1.11%
CCC(=O)N1CCc2cc(S(=O)(=O)CCC(=O)N3CCN(c4ccc(C(C)=O)cc4)CC3)ccc21	inactive: 2.36%
CCOc1ccc(-c2cn3c(n2)sc2cc(C(=O)NCCc4ccc(OC)c(OC)c4)ccc23)cc1	inactive: 2.49%
Cc1ccc(C2=NN(CC(=O)NCCc3ccc(Cl)cc3)C(=O)CC2)cc1	inactive: 0%
COc1ccc(CCNC(=O)CCn2c(=O)c3cccn3c3cccnc32)c(OC)c1OC	inactive: 4.25%
Cc1cccc(NC(=O)N2CCC(n3c(C)nc4cccnc43)CC2)c1	inactive: 3.68%
O=C(CSc1nccn1Cc1ccccc1)Nc1ccc2c(c1)OCO2	inactive: -1.07%
CCOC(=O)N1CCC(NC(=O)c2ccc3c(c2)N(Cc2cc(C)ccc2C)C(=O)c2ccccc2S3=O)CC1 (stereo not given)	inactive: -15.6%
CCC(C)(C)NC(=O)Cn1c(=O)ccc2cc(S(=O)(=O)N3CCC(C)CC3)ccc21	inactive: 2.9%
CCOc1cc(C(=O)NCCc2csc(-c3ccc(C)cc3)n2)cc(OCC)c1OCC	inactive: -1.19%
CN(C(=O)c1cc2c(=O)n3ccccc3nc2n1C)c1ccccc1	inactive: 3.23%
CC(=O)Nc1nnc(SCc2cc(=O)c3cccc(Cl)c3[nH]2)s1	inactive: 1.28%
CCOc1ccc(CCNC(=O)Cn2nnc(-c3ccc(C(F)(F)F)cc3)n2)cc1OCC	inactive: -1.9%

Structure (SMILES)	activity change, negative = inhibition
Cn1cc(CCCC(=O)NCc2ccccc2Cl)c2ccccc21	inactive: 9.43%
CCOC(=O)c1c(NC(=O)CSc2nc(-c3ccccc3)cc(C(F)(F)F)n2)sc(C)c1C	inactive: -1.28%
CCOc1ccc(OCC)c(Nc2cc(C)nc3nc(-c4ccco4)nn23)c1	inactive: 0%
CC(=O)N1c2ccc(S(=O)(=O)N3CCCCCC3)cc2CC1C(=O)NCc1ccccc1F (stereo not given)	inactive: 13.9%
Cc1ccc(CNc2ccc(-c3nc(-c4ccccn4)no3)cc2[N+](=O)[O-])cc1	inactive: -7.75%
O=C(c1ccc([N+](=O)[O-])cc1)N1CCN(c2ccc(Nc3ccccc3)nn2)CC1	inactive: 0.275%
CCOc1ccc(CCNC(=O)CN2C(=O)c3cccnc3Oc3ccc(Cl)cc32)cc1	inactive: -11.8%
CCOC(=O)c1c(S(=O)(=O)N2CCC(C(=O)Nc3ccc(OCC)cc3)CC2)c(C)n(C)c1C	inactive: -6.3%
CCCCN(CCCC)CCNC(=O)c1cn(C)c2ccc(S(=O)(=O)N3CCCC3)cc2c1=O	inactive: 4.32%
COc1ccc(OC)c(NC(=O)N2c3ccccc3Sc3ccccc32)c1	inactive: 1.9%
CCc1ccc(C2c3c(-c4cc(C)ccc4O)n[nH]c3C(=O)N2Cc2cccnc2)cc1 (stereo not given)	inactive: 1.77%
Cc1ccc(OCc2nc(-c3ccc(C(=O)N4CCN(c5ccccc5)CC4)cc3)oc2C)cc1	inactive: -8.9%
O=C(NCc1ccccc1Cl)c1ccc(Nc2nc3ccccc3n3nnnc23)cc1	inactive: -7.36%
Cc1c(NC(=O)Nc2ccc(F)c(Cl)c2)c(=O)n(-c2ccccc2)n1C	inactive: -4.95%
Cc1nn(CCC(=O)N2CCN(c3ccccc3)CC2)c(C)c1S(=O)(=O)N1CCCC1	inactive: -1.24%
CCc1cnc2c(c1SCC(=O)N1CCC(C)CC1)c(=O)n(C)c(=O)n2C	inactive: 0.41%
Cc1ccc(-n2nc(C)c3c(C(=O)NCc4ccc(F)cc4)cc(C)nc32)cc1	inactive: 0%
Cc1cccc(N2CC(C)Cn3c2nc2c3c(=O)n(CC(=O)O)c(=O)n2C)c1 (stereo not given)	inactive: -1.59%
CCc1cccc(NC(=O)CCc2nc3cccnc3n2-c2ccccc2)c1	inactive: 0.392%
COCCNC(=O)c1cccc(Nc2nc3ccccc3n3nnnc23)c1	inactive: 0%
CSc1ccc(CCNC(=O)c2ccc(CS(=O)(=O)c3ccc(Br)cc3)o2)cc1	inactive: -11.3%
O=C(Nc1ccc(F)cc1F)c1cc2c(=O)n3ccccc3nc2s1	inactive: -16.4%
CCOc1cc(CNC(=O)c2ccc3c(c2)N(C)C(=O)C2CCCCN32)cc(OCC)c1OCC (stereo not given)	inactive: -0.594%

Reference: PubChem BioAssay AID493208 (National Center for Advancing Translational Sciences (NCATS), 2011)
